# The inconclusive results got no clear call from the source; some entries with a clear call stand among them for comparison. For some assays here: No potency is given beside an inconclusive call; the fits are too rough. Activity calls are given as the source filed them. Unless noted, the call rests on the fitted dose curve; in most records, active means well fitted curve in the direction sought with a large enough effect; inconclusive means small, poorly fitted or top-dose-only effect, or another doubt; inactive means no such curve, though single readings can be large; an effect the other way counts as inactive or inconclusive.
# Key:
# [1] = qHTS of pediatric cancer cell lines to identify multiple opportunities for drug repurposing: Primary screen for SJ-GBM2 cells (AID 1347091)
# How it was run: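 Eight- or eleven-point concentration series, 48 h treatment at 37 degrees C in growth media; readout CellTiter-Glo luminescence. Potency and efficacy were taken from the concentration-response curves.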
# [2] = qHTS of pediatric cancer cell lines to identify multiple opportunities for drug repurposing: Primary screen for NB-EBc1 cells (AID 1347095)
# How it was run: (§1)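 Primary screen of approved and investigational compounds on cells in growth media at 37 degrees C, 5% CO2. MIPE set at 11-point and NPC set at 8-point dilutions; viability scored by ATP-based luminescence at 48 hours.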
# [3] = qHTS of pediatric cancer cell lines to identify multiple opportunities for drug repurposing: Primary screen for Saos-2 cells (AID 1347097); settings: Saos-2 viability, CellTiter-Glo ATP luminescence, 48 h; activity change, negative = cytotoxic: at 46 µM (top of the series); further: nearly all actives have a fitted effect of over 40% in size; further: potency means the concentration at half of the fitted maximal effect
# How it was run: as §1
# [4] = qHTS of pediatric cancer cell lines to identify multiple opportunities for drug repurposing: Primary screen for Rh41 cells (AID 1347108);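 further: luminescence drop marks cytotoxic hits; nearly all actives have a fitted effect of over 70% in size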
# How it was run: as §1
# [5] = system: Zika virus NS2B-NS3 protease; experiment: Primary screen GU AMC qHTS for Zika virus inhibitors (AID 1347154); further: nearly all actives have a fitted effect of over 70% in size
# How it was run: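 Unlinked Zika NS2B hydrophilic domain/NS3 protease domain noncovalent complex (25 nM final) in 10 mM Tris-HCl pH 8.0, 0.01% Tween 20, with AMC peptide substrate. Fluorescence (ex 340, em 450 nm) change over 15 min, room temperature; percent inhibition fitted to 4-parameter Hill equation.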
# [6] = biological target: Calcium and integrin-binding protein 1 (Homo sapiens) (UniProt Q99828); experiment: Primary qHTS for Identification of Calcium Integrin Binding Protein 1 (CIB1) Competitor (AID 1508620);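 further: GST tagged CIB1 binding a fluorescein labelled alphaIIb integrin peptide tracer; top concentration of the series differs between compounds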
# UniProt Q99828, sequence (Q99828 whole entry, looked up): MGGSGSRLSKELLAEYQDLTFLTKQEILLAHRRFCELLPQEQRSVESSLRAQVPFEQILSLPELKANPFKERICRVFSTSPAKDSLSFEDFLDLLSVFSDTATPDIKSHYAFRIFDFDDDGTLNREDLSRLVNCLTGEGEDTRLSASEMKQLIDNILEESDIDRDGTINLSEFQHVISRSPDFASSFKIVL
# How it was run: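 Fluorescence polarization competition: CIB1-GST (1 uM final) preincubated with compound 15 min at room temperature, then FITC-labeled alphaIIb peptide (100 nM final) added for another 15 min. Polarization read at Ex 480/Em 540.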
# [7] = Primary qHTS for small molecule stabilizers of the endoplasmic reticulum resident proteome: Secreted ER Calcium Modulated Protein (SERCaMP) assay (AID 1508630); settings: SH-SY5Y GLuc-SERCaMP (Gaussia luciferase released on ER calcium loss) secretion, thapsigargin, luminescence; series mostly up to 38.4 µM; further: potency means the concentration at half of the fitted maximal effect
# How it was run: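 The SH-SY5Y reporter protocol was run at 3 concentrations up to 38.3 uM (primary) or 11 concentrations (follow-up): 16 h compound, 100 nM thapsigargin for 4 h, then extracellular luciferase luminescence.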
# [8] = biological target: Cytochrome P450 2D6 (Homo sapiens) (UniProt P10635); experiment: Cytochrome P450 family 2 subfamily D member 6 (CYP2D6) small molecule antagonists: luciferase biochemical (cell-free) qHTS assay (AID 1645840; active means well fitted curve in the direction sought with a large enough effect in the repeat runs; inconclusive means weak or mixed curves; inactive means no such curve, though single readings can be large; an effect the other way counts as inactive or inconclusive; further: nearly all actives have a fitted effect of over 55% in size)
# UniProt P10635, sequence (P10635 whole entry, looked up): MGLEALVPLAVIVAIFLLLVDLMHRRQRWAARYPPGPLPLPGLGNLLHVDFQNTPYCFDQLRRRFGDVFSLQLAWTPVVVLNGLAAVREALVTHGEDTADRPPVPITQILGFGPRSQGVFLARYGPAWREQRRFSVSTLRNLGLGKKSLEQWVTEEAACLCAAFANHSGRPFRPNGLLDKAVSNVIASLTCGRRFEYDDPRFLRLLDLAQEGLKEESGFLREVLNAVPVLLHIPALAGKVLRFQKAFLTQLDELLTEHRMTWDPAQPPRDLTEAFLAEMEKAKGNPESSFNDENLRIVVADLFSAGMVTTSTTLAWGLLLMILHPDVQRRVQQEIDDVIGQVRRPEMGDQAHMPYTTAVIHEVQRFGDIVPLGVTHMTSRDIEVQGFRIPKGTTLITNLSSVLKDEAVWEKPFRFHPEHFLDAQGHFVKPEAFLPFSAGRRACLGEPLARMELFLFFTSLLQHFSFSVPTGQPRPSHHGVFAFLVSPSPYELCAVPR
# How it was run: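 P450-Glo CYP2D6 system: proluciferin substrate converted by enzyme to luciferin, read by luminescence proportional to activity. Enzyme-substrate mix with compound 10 min at room temperature, then NADPH regeneration 1 h before detection reagent.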
# [9] = biological target: Cytochrome P450 2C9 (Homo sapiens) (UniProt P11712); experiment: Cytochrome P450 family 2 subfamily C member 9 (CYP2C9) small molecule antagonists: luciferase biochemical (cell-free) qHTS assay (AID 1645842; active means well fitted curve in the direction sought with a large enough effect in the repeat runs; inconclusive means weak or mixed curves; inactive means no such curve, though single readings can be large; an effect the other way counts as inactive or inconclusive; further: potency means the concentration at half of the fitted maximal effect; nearly all actives have a fitted effect of over 55% in size)
# UniProt P11712, sequence (P11712 whole entry, looked up): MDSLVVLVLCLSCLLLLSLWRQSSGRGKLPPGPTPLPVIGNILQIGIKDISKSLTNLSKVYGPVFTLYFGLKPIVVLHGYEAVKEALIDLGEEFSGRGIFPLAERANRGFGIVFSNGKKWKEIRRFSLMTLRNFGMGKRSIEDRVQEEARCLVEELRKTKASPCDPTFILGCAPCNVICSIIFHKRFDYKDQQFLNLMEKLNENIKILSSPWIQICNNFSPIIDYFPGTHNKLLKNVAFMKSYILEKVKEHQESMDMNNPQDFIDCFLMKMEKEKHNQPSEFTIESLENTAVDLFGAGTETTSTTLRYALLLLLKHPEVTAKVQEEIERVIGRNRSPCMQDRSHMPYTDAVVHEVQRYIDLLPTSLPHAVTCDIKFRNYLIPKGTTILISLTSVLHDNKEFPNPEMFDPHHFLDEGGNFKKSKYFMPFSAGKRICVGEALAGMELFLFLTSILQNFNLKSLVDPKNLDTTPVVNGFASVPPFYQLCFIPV
# How it was run: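 P450-Glo CYP2C9 system: proluciferin substrate with enzyme in mix containing 0.4% BSA, 10 min at room temperature, then NADPH regeneration solution added and incubated 1 h at 37C. Detection reagent stopped reaction; luminescence read after 20 min as RLU.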
# [10] = Primary qHTS for inhibitors of nuclear receptor binding SET domain protein 2 (NSD2) in an RCH-ACV wild type WT cells (2C) (AID 1645877); settings: activity change, negative = cell killing: at 44.9 µM (top of the series) unless noted; further: nearly all actives have a fitted effect of over 70% in size
# [11] = system: CAOV3; experiment: Primary qHTS to identify gynecologic anti-cancer compounds using libraries of approved drugs and bioactive compounds (AID 1345084); settings: Gynecologic cancer cell panel viability, ATPlite luminescence, 48 h; series mostly up to 57.5 µM; further: nearly all actives have a fitted effect of over 55% in size; further: potency means the concentration at half of the fitted maximal effect
# How it was run: (§2)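 Cytotoxicity screen measuring ATP content by luciferase luminescence. Each compound is applied at five concentrations for 48 h at 37 C with 5% CO2.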
# [12] = system: CP265; experiment: qHTS profiling for inhibitors of Plasmodium falciparum proliferation (AID 504749); further: nearly all actives have a fitted effect of over 60% in size; settings: P. falciparum in erythrocytes, SYBR Green DNA, 72 h; series mostly up to 28.7 µM
# How it was run: (§3)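 Fluorescence of SYBR Green-bound parasite DNA, read at 485/535 nm, served as the growth measure. Infected erythrocytes were cultured with compound 72 h; artemisinin (0.29 uM) and DMSO wells defined the normalization range.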
# [13] = system: CP297; experiment: as above; settings: P. falciparum in erythrocytes, SYBR Green DNA, 72 h; series mostly up to 28.7 µM
# How it was run: as §3
# [14] = system: P93_24; experiment: as above; settings: P. falciparum in erythrocytes, SYBR Green DNA, 72 h; series mostly up to 28.7 µM
# How it was run: as §3
# [15] = system: TAB109; experiment: as above; settings: P. falciparum in erythrocytes, SYBR Green DNA, 72 h; series mostly up to 28.7 µM
# How it was run: as §3
# [16] = system: TAB113; experiment: as above; settings: P. falciparum in erythrocytes, SYBR Green DNA, 72 h; series mostly up to 28.7 µM
# How it was run: as §3
# [17] = system: Tov112D; experiment: Primary qHTS to identify gynecologic anti-cancer compounds using libraries of approved drugs and bioactive compounds (AID 1345084); settings: Gynecologic cancer cell panel viability, ATPlite luminescence, 48 h; series mostly up to 57.5 µM; further: nearly all actives have a fitted effect of over 55% in size; further: potency means the concentration at half of the fitted maximal effect
# How it was run: as §2
# [18] = P-glycoprotein substrates identified in KB-8-5-11 adenocarcinoma cell line, qHTS therapeutic library screen (AID 1346987); settings: activity change, negative = cytotoxicity: at 44.5 µM (top of the series); further: nearly all actives have a fitted effect of over 65% in size
# How it was run: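 Human cervical adenocarcinoma KB-8-5-11 cells, selected in colchicine to over-express P-gp and assayed without it, were exposed for 72 h to titrated compounds. An ATP-based luminescent viability signal gave AC50.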
# [19] = qHTS of pediatric cancer cell lines to identify multiple opportunities for drug repurposing: Primary screen for NB1643 cells (AID 1347099); settings: NB1643 neuroblastoma viability, CellTiter-Glo luminescence, 48 h; activity change, negative = cytotoxic: at 46 µM (top of the series); further: nearly all actives have a fitted effect of over 50% in size
# How it was run: as §1
# [20] = qHTS of pediatric cancer cell lines to identify multiple opportunities for drug repurposing: Primary screen for OHS-50 cells (AID 1347103); settings: OHS-50 osteosarcoma viability, CellTiter-Glo luminescence, 48 h; activity change, negative = cytotoxic: at 57.3 µM (top of the series); further: potency means the concentration at half of the fitted maximal effect; nearly all actives have a fitted effect of over 40% in size
# How it was run: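 Cells (500-1,000/well) rested 5 h, then received compounds for 48 h; metabolically active cells were measured by CellTiter-Glo luminescence. Final concentrations spanned up to 46 µM (MIPE, 11-point) or 0.59 nM-46 µM (NPC, 8-point) in primary screens, 11-point in follow-ups.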
# [21] = qHTS of pediatric cancer cell lines to identify multiple opportunities for drug repurposing: Confirmatory screen for NB1643 cells (AID 1347109); further: nearly all actives have a fitted effect of over 45% in size
# How it was run: (§4)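 Cells (500-1,000/well) in growth media were settled 5 h at 37 degrees C, then given compounds for 48 h. Viability was read as CellTiter-Glo luminescence. Primary runs used MIPE at 11 points (0.78 nM-46 µM) and NPC at 8 points (0.59 nM-46 µM); follow-ups used 11 points.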
# [22] = qHTS of pediatric cancer cell lines to identify multiple opportunities for drug repurposing: Confirmatory screen for SK-N-MC cells (AID 1347111);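 further: potency means the concentration at half of the fitted maximal effect; cells exposed to compound for 48 h before the readout; nearly all actives have a fitted effect of over 70% in size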
# How it was run: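 Metabolically active cells were quantified by ATP-dependent luminescence (CellTiter-Glo, 15 min at room temperature) following 48 h treatment. Cells had been plated at 500-1,000 per well and settled for 5 h beforehand.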
# [23] = qHTS of pediatric cancer cell lines to identify multiple opportunities for drug repurposing: Confirmatory screen for BT-12 cells (AID 1347112); further: nearly all actives have a fitted effect of over 55% in size
# How it was run: as §4
# [24] = qHTS of pediatric cancer cell lines to identify multiple opportunities for drug repurposing: Confirmatory screen for LAN-5 cells (AID 1347113); further: nearly all actives have a fitted effect of over 65% in size
# How it was run: as §4
# [25] = qHTS of pediatric cancer cell lines to identify multiple opportunities for drug repurposing: Confirmatory screen for NB-EBc1 cells (AID 1347115);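 further: potency means the concentration at half of the fitted maximal effect; cells exposed to compound for 48 h before the viability read; nearly all actives have a fitted effect of over 45% in size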
# How it was run: as §4
# [26] = qHTS of pediatric cancer cell lines to identify multiple opportunities for drug repurposing: Confirmatory screen for SJ-GBM2 cells (AID 1347116); further: potency means the concentration at half of the fitted maximal effect; nearly all actives have a fitted effect of over 60% in size
# How it was run: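 Viability measured as metabolically active cells via CellTiter-Glo luminescence following 48 hours of compound exposure, 11-point dilutions in confirmatory testing. 500-1,000 cells/well plated 5 hours before dosing; controls were DMSO and 2.3 µM bortezomib.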
# [27] = qHTS of pediatric cancer cell lines to identify multiple opportunities for drug repurposing: Confirmatory screen for BT-37 cells (AID 1347117)
# How it was run: as §4
# [28] = qHTS of pediatric cancer cell lines to identify multiple opportunities for drug repurposing: Confirmatory screen for TC32 cells (AID 1347118);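 further: potency means the concentration at half of the fitted maximal effect; cells exposed to compound for 48 h before the read; nearly all actives have a fitted effect of over 65% in size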
# How it was run: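 Measured quantity: luminescence from CellTiter-Glo, reflecting metabolically active TC32 cells following 48 h of compound. Curves came straight from multi-point titrations, with 8 or 11 points in primary and 11 in confirmatory screening.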
# [29] = qHTS of pediatric cancer cell lines to identify multiple opportunities for drug repurposing: Confirmatory screen for U-2 OS cells (AID 1347122); further: potency means the concentration at half of the fitted maximal effect; nearly all actives have a fitted effect of over 65% in size
# How it was run: as §4
# [30] = qHTS of pediatric cancer cell lines to identify multiple opportunities for drug repurposing: Confirmatory screen for Rh41 cells (AID 1347123);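 further: potency means the concentration at half of the fitted maximal effect; 48 h compound exposure; nearly all actives have a fitted effect of over 60% in size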
# How it was run: as §4
# [31] = qHTS of pediatric cancer cell lines to identify multiple opportunities for drug repurposing: Confirmatory screen for RD cells (AID 1347124)
# How it was run: as §4
# [32] = qHTS of pediatric cancer cell lines to identify multiple opportunities for drug repurposing: Confirmatory screen for Rh18 cells (AID 1347125); further: nearly all actives have a fitted effect of over 55% in size
# How it was run: as §4
# [33] = qHTS of pediatric cancer cell lines to identify multiple opportunities for drug repurposing: Confirmatory screen for Rh30 cells (AID 1347126)
# How it was run: as §4
# [34] = qHTS of pediatric cancer cell lines to identify multiple opportunities for drug repurposing: Confirmatory screen for Saos-2 cells (AID 1347127); further: potency means the concentration at half of the fitted maximal effect; nearly all actives have a fitted effect of over 60% in size
# How it was run: as §4
# [35] = qHTS of pediatric cancer cell lines to identify multiple opportunities for drug repurposing: Confirmatory screen for OHS-50 cells (AID 1347128)
# How it was run: as §4
# [36] = Primary qHTS for inhibitors of nuclear receptor binding SET domain protein 2 (NSD2) in an isogenic RCH-ACV NSD2 p.E1099K mutant (9B) (AID 1645876); settings: activity change, negative = viability loss: at 44.9 µM (top of the series) unless noted; further: nearly all actives have a fitted effect of over 70% in size
# Tags describe the fitted curve by direction and shape.
compound,measurement,setting,value
CCc1nnc(NS(=O)(=O)c2ccc(N)cc2)s1,Potency,[1],inactive
same,Potency,[2],inactive
same,Potency,[3],inactive
same,Potency,[4],inactive
same,Potency,[5],inactive
same,Potency,[6],inactive
same,Potency,[7],"inconclusive [inhibitor, single point]"
same,Potency,[8],inactive
same,Potency,[9],"inconclusive [inhibitor, partial curve]"
same,Potency,[10],inactive
same,Potency,[11],inactive
same,Potency,[12],inactive
same,Potency,[13],inactive
same,Potency,[14],inactive
same,Potency,[15],inactive
same,Potency,[16],inactive
C/C=C/C1OC2=C(C(=O)OC2(C)O)C(O)C1O (stereo unspecified),Potency,[10],inactive
same,Potency,[11],"inconclusive [cytotoxic, single point]"
same,Potency,[17],inactive
CC(=O)OCC(=O)[C@@]1(O)CCC2C3CCC4=CC(=O)CC[C@]4(C)C3[C@@H](O)C[C@@]21C (stereo partly specified),Potency,[18],inactive
same,Potency,[3],"inconclusive [cytotoxic, single point]"
same,Potency,[19],inactive
same,Potency,[20],"inconclusive [cytotoxic, partial curve, poor fit]"
same,Potency,[21],inactive
same,Potency,[22],"inconclusive [cytotoxic, partial curve, poor fit]"
same,Potency,[23],inactive
same,Potency,[24],inactive
same,Potency,[25],"inconclusive [cytotoxic, partial curve, poor fit]"
same,Potency,[26],"inconclusive [cytotoxic, full curve, poor fit]"
same,Potency,[27],"inconclusive [cytotoxic, partial curve, poor fit]"
same,Potency,[28],active: 26.1 µM
same,Potency,[29],"inconclusive [cytotoxic, single point]"
same,Potency,[30],active: 11.7 µM
same,Potency,[31],"inconclusive [cytotoxic, full curve, poor fit]"
same,Potency,[32],inactive
same,Potency,[33],"inconclusive [cytotoxic, full curve]"
same,Potency,[34],"inconclusive [cytotoxic, single point]"
same,Potency,[35],inactive
same,Potency,[9],"inconclusive [inhibitor, partial curve]"
same,Potency,[36],inactive
same,Potency,[11],"inconclusive [cytotoxic, single point]"

# — PubChem BioAssay (NCATS)
